Results are given in words; binding and its absence hold for the method and conditions named. Binding seen in cells or lysates may run through a third protein. Some results given as binding are weak or reduced against the parent protein; the word gives no strength.
Columns and labels:
Assay in all cases: co-IP; HEK 293T transfected with flag-tagged MBD2 constructs; lysate immunoprecipitated with anti-flag M2 antibody (mouse IgG control); western blot for endogenous NuRD components
[1] = target: flag-tagged MBD2IDR (without scMBD2-p66α) (human) (UniProt Q9UBB5)
[2] = target: flag-tagged MBD2IDR first and second sub-regions in combination (amino acids 212–316) (human) (UniProt Q9UBB5)
[3] = target: flag-tagged MBD2IDR first sub-region (amino acids 212–273) (human) (UniProt Q9UBB5)
[4] = target: flag-tagged MBD2IDR second sub-region (amino acids 274–316) (human) (UniProt Q9UBB5)
[5] = target: flag-tagged MBD2IDR third sub-region (amino acids 317–360) (human) (UniProt Q9UBB5)
[6] = target: flag-tagged MBD2IDR with scMBD2-p66α (human) (UniProt Q9UBB5+Q86YP4)
[7] = target: flag-tagged scMBD2-p66α (single-chain coiled-coil construct) (human) (UniProt Q9UBB5+Q86YP4)

The chains behind the UniProt entries cited, without tags or fusion partners. Where a name states a change or a piece, a line headed by the entry shows the natural chain unless it says otherwise. A line that says so, or that is headed by a name, gives the form on record, which may keep a tag or linker. Residues count along the entry.
flag-tagged MBD2IDR (without scMBD2-p66α) (Q9UBB5, residues 212-360): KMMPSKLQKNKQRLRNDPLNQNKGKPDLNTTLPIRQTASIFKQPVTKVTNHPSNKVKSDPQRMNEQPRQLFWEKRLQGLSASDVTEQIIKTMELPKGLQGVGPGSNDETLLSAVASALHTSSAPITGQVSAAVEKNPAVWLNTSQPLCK
flag-tagged MBD2IDR first and second sub-regions in combination (amino acids 212–316) (Q9UBB5, residues 212-316): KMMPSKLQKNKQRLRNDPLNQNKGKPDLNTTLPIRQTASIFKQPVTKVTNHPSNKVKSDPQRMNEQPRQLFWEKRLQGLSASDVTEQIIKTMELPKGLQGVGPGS
flag-tagged MBD2IDR first sub-region (amino acids 212–273) (Q9UBB5, residues 212-273): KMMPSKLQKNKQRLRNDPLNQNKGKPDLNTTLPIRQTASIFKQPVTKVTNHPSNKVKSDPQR
flag-tagged MBD2IDR second sub-region (amino acids 274–316) (Q9UBB5, residues 274-316): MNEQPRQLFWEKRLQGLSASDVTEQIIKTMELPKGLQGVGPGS
flag-tagged MBD2IDR third sub-region (amino acids 317–360) (Q9UBB5, residues 317-360): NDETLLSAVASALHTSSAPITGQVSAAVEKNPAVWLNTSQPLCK
UniProt Q86YP4: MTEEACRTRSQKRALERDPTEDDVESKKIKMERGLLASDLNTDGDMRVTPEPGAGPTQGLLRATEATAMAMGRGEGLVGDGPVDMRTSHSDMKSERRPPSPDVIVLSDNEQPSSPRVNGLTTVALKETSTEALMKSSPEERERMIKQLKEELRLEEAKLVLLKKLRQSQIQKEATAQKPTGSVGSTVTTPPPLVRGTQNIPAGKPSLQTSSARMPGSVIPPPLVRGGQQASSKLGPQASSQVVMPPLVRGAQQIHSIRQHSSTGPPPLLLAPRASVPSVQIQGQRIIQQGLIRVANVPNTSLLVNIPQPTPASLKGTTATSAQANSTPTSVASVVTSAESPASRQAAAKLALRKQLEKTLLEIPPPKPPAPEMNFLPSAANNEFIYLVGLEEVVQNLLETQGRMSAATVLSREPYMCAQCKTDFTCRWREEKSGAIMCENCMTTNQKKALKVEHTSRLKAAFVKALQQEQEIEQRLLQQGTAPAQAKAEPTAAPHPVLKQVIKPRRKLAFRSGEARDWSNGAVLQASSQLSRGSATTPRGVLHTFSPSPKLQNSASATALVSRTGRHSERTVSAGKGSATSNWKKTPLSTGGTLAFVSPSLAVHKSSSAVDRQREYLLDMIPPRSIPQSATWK
UniProt Q92769: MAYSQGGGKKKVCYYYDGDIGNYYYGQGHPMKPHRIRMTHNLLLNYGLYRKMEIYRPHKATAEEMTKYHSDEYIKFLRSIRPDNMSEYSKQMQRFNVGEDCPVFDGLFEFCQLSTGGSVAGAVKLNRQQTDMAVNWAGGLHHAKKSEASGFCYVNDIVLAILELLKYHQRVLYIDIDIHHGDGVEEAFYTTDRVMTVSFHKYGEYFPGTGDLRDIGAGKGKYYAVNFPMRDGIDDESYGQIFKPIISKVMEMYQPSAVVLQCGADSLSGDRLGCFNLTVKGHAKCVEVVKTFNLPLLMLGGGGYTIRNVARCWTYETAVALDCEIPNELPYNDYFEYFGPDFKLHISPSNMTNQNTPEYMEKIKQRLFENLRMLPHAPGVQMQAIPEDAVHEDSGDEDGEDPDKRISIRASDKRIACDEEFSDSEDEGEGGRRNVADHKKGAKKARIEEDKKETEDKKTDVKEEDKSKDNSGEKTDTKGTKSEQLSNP
UniProt Q14839: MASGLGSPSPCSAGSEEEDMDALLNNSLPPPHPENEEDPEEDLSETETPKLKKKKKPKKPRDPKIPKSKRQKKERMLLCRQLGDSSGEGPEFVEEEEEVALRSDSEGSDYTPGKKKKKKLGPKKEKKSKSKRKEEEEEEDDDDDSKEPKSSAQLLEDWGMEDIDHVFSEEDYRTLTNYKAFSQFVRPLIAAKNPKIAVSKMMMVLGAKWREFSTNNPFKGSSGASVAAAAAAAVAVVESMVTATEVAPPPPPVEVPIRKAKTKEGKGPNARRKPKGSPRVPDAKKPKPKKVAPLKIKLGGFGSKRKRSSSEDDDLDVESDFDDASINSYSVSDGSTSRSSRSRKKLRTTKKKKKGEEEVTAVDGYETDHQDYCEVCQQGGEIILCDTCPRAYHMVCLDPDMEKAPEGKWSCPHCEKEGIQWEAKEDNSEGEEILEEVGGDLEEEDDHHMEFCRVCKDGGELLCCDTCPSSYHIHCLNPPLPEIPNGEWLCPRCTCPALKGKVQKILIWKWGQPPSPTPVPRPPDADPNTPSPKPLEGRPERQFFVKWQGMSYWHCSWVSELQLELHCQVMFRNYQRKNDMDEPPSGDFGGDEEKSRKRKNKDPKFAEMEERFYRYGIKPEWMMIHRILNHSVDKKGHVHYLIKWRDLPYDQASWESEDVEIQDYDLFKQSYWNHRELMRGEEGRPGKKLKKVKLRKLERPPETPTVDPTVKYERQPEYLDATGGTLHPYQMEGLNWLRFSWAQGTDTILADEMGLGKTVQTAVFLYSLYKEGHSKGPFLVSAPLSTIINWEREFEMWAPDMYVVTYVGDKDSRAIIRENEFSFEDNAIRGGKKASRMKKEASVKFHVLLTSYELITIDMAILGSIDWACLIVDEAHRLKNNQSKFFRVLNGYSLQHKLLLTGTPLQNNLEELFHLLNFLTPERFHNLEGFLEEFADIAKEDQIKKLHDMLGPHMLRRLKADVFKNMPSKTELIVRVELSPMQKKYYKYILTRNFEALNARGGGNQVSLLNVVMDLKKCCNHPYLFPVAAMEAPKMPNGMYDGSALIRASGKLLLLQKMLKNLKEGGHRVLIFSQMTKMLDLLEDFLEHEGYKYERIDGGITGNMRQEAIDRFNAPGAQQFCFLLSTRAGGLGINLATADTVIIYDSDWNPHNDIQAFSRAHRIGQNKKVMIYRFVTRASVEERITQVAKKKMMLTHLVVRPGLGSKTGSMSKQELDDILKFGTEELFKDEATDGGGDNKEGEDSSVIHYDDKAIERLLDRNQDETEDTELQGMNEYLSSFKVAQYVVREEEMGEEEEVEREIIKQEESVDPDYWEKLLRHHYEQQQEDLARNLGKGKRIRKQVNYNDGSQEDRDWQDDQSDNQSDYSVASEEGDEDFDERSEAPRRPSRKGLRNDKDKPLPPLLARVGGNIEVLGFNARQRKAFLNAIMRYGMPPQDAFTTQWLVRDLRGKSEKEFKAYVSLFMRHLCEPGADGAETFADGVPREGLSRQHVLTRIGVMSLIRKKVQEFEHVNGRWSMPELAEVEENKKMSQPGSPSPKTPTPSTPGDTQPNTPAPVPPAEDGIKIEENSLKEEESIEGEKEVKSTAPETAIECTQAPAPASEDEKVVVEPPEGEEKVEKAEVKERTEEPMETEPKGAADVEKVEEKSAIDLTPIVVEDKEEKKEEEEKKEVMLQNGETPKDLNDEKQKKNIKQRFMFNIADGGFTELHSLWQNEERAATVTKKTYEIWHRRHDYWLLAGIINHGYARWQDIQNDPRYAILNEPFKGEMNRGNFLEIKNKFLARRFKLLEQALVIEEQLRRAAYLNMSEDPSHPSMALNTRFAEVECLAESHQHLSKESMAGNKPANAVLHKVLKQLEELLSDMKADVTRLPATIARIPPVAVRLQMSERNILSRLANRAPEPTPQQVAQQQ
UniProt Q09028: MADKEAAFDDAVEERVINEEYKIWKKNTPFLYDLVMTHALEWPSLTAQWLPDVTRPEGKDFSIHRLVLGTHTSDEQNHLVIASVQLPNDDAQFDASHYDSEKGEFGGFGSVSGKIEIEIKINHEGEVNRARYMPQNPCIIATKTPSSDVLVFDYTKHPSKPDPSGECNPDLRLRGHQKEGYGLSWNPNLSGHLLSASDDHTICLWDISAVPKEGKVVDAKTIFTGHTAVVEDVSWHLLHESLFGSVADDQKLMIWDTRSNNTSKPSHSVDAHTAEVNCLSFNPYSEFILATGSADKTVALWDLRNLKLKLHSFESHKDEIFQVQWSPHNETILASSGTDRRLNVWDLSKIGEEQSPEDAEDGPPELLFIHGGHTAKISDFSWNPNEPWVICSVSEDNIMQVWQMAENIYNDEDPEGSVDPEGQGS

Row | binding [1] | binding [2] | binding [3] | binding [4] | binding [5] | binding [6] | binding [7] | Substance
1 | binds | binds | no binding | no binding | no binding | binds | no binding | HDAC2 (from UniProt Q92769 1-488) (enzyme)
2 | no binding | – | – | – | – | – | – | CHD4 (from UniProt Q14839 1-1912) (enzyme)
3 | binds | binds | no binding | no binding | no binding | binds | no binding | RbAp48 (from UniProt Q09028 1-425)
